# According to the supplement of paper PMC8728848:
# The list shows a part of the results.
# B1: GH95CBM (Clostridium perfringens) (protein)
# chain: EKVAVETSVYLSELEWKSASTGYGEIQKDASCDGNTITLKGENGEKVSYDKGIGTHAHSEIVYSLEGLDYYDYFETFVGVDQEMAGTVASISFEVYLDNEKVFDSGLMTGDTTQKHVKVPIAGKNTLKLVVKDGGDSIGSDHGSFGDAKLT
# Assays:
# Assay in all cases: glycan array binding signal (z-score within array); higher = stronger binding
# Details in all cases: glycan notation: IUPAC condensed, linker removed
# [1] = molecular target: Neu5Ac(a2-6)Gal(b1-4)GlcNAc(b1-2)Man(a1-3)[Gal(b1-4)GlcNAc(b1-2)Man(a1-6)]Man(b1-4)GlcNAc(b1-4)GlcNAc
# Procedure, shortened: (§1)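 The binding signal is a Z-score computed within each array and averaged over linkers. Arrays of the same protein sequence at different concentrations or buffers were also averaged together. Data originate from 3228 arrays in the Consortium for Functional Glycomics database, kept only where the protein sequence was available.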
# [2] = molecular target: Neu5Ac(a2-6)Gal(b1-4)GlcNAc(b1-2)Man(a1-3)[GlcNAc(b1-2)Man(a1-6)]Man(b1-4)GlcNAc(b1-4)GlcNAc
# Procedure, shortened: as §1
# [3] = molecular target: Neu5Ac(a2-6)Gal(b1-4)GlcNAc(b1-2)Man(a1-3)[GlcNAc(b1-2)Man(b1-4)GlcNAc(b1-2)Man(a1-6)]Man(b1-4)GlcNAc(b1-4)GlcNAc
# Procedure, shortened: as §1
# [4] = molecular target: Neu5Ac(a2-6)Gal(b1-4)GlcNAc(b1-2)Man(a1-3)[Neu5Ac(a2-6)Gal(b1-4)GlcNAc(b1-2)Man(a1-6)]Man(b1-4)GlcNAc(b1-4)GlcNAc
# Procedure, shortened: as §1
# [5] = molecular target: Neu5Ac(a2-6)Gal(b1-4)GlcNAc(b1-2)Man(a1-6)[Gal(b1-4)GlcNAc(b1-2)Man(a1-3)]Man(b1-4)GlcNAc(b1-4)GlcNAc
# Procedure, shortened: as §1
# [6] = molecular target: Neu5Ac(a2-6)Gal(b1-4)GlcNAc(b1-2)Man(a1-6)[GlcNAc(b1-2)Man(a1-3)]Man(b1-4)GlcNAc(b1-4)GlcNAc
# Procedure, shortened: as §1
# [7] = molecular target: Neu5Ac(a2-6)Gal(b1-4)GlcNAc(b1-3)Gal(b1-4)GlcNAc
# Procedure, shortened: as §1
# [8] = molecular target: Neu5Ac(a2-6)Gal(b1-4)GlcNAc(b1-3)Gal(b1-4)[Fuc(a1-3)]GlcNAc(b1-3)Gal(b1-4)[Fuc(a1-3)]GlcNAc
# Procedure, shortened: as §1
# [9] = molecular target: Neu5Ac(a2-6)Gal(b1-4)GlcNAc6S
# Procedure, shortened: as §1
# [10] = molecular target: Neu5Ac(a2-6)GalNAc
# Procedure, shortened: as §1
# [11] = molecular target: Neu5Ac(a2-6)GalNAc(b1-4)GlcNAc
# Procedure, shortened: as §1
# [12] = molecular target: Neu5Ac(a2-8)Neu5Ac
# Procedure, shortened: as §1
# [13] = molecular target: Neu5Ac(a2-8)Neu5Ac(a2-3)Gal(b1-4)Glc
# Procedure, shortened: as §1
# [14] = molecular target: Neu5Ac(a2-8)Neu5Ac(a2-3)[GalNAc(b1-4)]Gal(b1-4)Glc
# Procedure, shortened: as §1
# [15] = molecular target: Neu5Ac(a2-8)Neu5Ac(a2-8)Neu5Ac
# Procedure, shortened: as §1
# [16] = molecular target: Neu5Ac(a2-8)Neu5Ac(a2-8)Neu5Ac(a2-3)Gal(b1-4)Glc
# Procedure, shortened: as §1
# [17] = molecular target: Neu5Ac(a2-8)Neu5Ac(a2-8)Neu5Ac(a2-3)[GalNAc(b1-4)]Gal(b1-4)Glc
# Procedure, shortened: as §1
# [18] = molecular target: Neu5Ac(a2-8)Neu5Ac(a2-8)Neu5Ac(a2-8)Neu5Ac(a2-3)[GalNAc(b1-4)]Gal(b1-4)Glc
# Procedure, shortened: as §1
# [19] = molecular target: Neu5Ac(b2-6)Gal(b1-4)GlcNAc
# Procedure, shortened: as §1
# [20] = molecular target: Neu5Ac(b2-6)GalNAc
# Procedure, shortened: as §1
# [21] = molecular target: Neu5Ac9Ac(a2-6)Gal(b1-4)GlcNAc
# Procedure, shortened: as §1
# [22] = molecular target: Neu5Gc(a2-3)Gal(b1-3)GlcNAc
# Procedure, shortened: as §1
# [23] = molecular target: Neu5Gc(a2-3)Gal(b1-3)[Fuc(a1-4)]GlcNAc
# Procedure, shortened: as §1
# [24] = molecular target: Neu5Gc(a2-3)Gal(b1-4)Glc
# Procedure, shortened: as §1
# [25] = molecular target: Neu5Gc(a2-3)Gal(b1-4)GlcNAc
# Procedure, shortened: as §1
# [26] = molecular target: Neu5Gc(a2-3)Gal(b1-4)[Fuc(a1-3)]GlcNAc
# Procedure, shortened: as §1
# [27] = molecular target: Neu5Gc(a2-6)Gal(b1-4)GlcNAc
# Procedure, shortened: as §1
# [28] = molecular target: Neu5Gc(a2-6)GalNAc
# Procedure, shortened: as §1
# [29] = molecular target: Neu5Gc(b2-6)Gal(b1-4)GlcNAc
# Procedure, shortened: as §1
binder,measurement,setting,value
B1,glycan array binding signal (z-score),[1],-0.168
same,glycan array binding signal (z-score),[2],-0.35
same,glycan array binding signal (z-score),[3],-0.3
same,glycan array binding signal (z-score),[4],0.964
same,glycan array binding signal (z-score),[5],-0.132
same,glycan array binding signal (z-score),[6],-0.314
same,glycan array binding signal (z-score),[7],-0.346
same,glycan array binding signal (z-score),[8],-0.276
same,glycan array binding signal (z-score),[9],-0.298
same,glycan array binding signal (z-score),[10],-0.333
same,glycan array binding signal (z-score),[11],-0.37
same,glycan array binding signal (z-score),[12],-0.283
same,glycan array binding signal (z-score),[13],-0.249
same,glycan array binding signal (z-score),[14],-0.135
same,glycan array binding signal (z-score),[15],-0.356
same,glycan array binding signal (z-score),[16],-0.343
same,glycan array binding signal (z-score),[17],-0.34
same,glycan array binding signal (z-score),[18],-0.28
same,glycan array binding signal (z-score),[19],-0.339
same,glycan array binding signal (z-score),[20],-0.339
same,glycan array binding signal (z-score),[21],-0.367
same,glycan array binding signal (z-score),[22],-0.364
same,glycan array binding signal (z-score),[23],-0.252
same,glycan array binding signal (z-score),[24],-0.265
same,glycan array binding signal (z-score),[25],-0.34
same,glycan array binding signal (z-score),[26],-0.303
same,glycan array binding signal (z-score),[27],-0.377
same,glycan array binding signal (z-score),[28],-0.328
same,glycan array binding signal (z-score),[29],-0.33
